Measurements: PubChem BioAssay (NCATS)
Inconclusive means that the source gave no clear call. Such entries were picked first, then a sample of the others. For part of these data: A potency beside an inconclusive call is a rough fit, not a confirmed value. Active and inactive are the calls of the source. Unless noted, calls come from the whole dose curve; as a rule, active = well fitted curve in the direction sought with a large enough effect; inconclusive = small, poorly fitted or top-dose-only effect, or another doubt; inactive = no such curve, though single readings can be large; an effect the other way counts as inactive or inconclusive.

How the values were obtained:
[1] = qHTS for differential inhibitors of proliferation of Plasmodium falciparum line HB3 (AID 1886); conditions: Potency: Plasmodium falciparum HB3 proliferation inhibition; series mostly up to 28.7 µM;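 note: parasites grown with compound for 72 h before SYBR Green readout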; note: potency is the fitted concentration of half-maximal effect;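 for activity change, negative = inhibition: plate controls were vehicle for no effect and reference inhibitor for full effect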
[2] = biological target: RecQ-like DNA helicase BLM (Homo sapiens) (UniProt P54132); test: qHTS Validation Assay for Inhibitors of Bloom's syndrome helicase (BLM) (AID 2364); conditions: BLM helicase DNA unwinding, fluorescence, in vitro; series mostly up to 57.1 µM; note: potency is the fitted concentration of half-maximal effect;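 for activity change, negative = inhibition: plate controls were DMSO vehicle for no effect and enzyme-free control for full effect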
Chain of UniProt P54132 (P54132 whole entry, looked up): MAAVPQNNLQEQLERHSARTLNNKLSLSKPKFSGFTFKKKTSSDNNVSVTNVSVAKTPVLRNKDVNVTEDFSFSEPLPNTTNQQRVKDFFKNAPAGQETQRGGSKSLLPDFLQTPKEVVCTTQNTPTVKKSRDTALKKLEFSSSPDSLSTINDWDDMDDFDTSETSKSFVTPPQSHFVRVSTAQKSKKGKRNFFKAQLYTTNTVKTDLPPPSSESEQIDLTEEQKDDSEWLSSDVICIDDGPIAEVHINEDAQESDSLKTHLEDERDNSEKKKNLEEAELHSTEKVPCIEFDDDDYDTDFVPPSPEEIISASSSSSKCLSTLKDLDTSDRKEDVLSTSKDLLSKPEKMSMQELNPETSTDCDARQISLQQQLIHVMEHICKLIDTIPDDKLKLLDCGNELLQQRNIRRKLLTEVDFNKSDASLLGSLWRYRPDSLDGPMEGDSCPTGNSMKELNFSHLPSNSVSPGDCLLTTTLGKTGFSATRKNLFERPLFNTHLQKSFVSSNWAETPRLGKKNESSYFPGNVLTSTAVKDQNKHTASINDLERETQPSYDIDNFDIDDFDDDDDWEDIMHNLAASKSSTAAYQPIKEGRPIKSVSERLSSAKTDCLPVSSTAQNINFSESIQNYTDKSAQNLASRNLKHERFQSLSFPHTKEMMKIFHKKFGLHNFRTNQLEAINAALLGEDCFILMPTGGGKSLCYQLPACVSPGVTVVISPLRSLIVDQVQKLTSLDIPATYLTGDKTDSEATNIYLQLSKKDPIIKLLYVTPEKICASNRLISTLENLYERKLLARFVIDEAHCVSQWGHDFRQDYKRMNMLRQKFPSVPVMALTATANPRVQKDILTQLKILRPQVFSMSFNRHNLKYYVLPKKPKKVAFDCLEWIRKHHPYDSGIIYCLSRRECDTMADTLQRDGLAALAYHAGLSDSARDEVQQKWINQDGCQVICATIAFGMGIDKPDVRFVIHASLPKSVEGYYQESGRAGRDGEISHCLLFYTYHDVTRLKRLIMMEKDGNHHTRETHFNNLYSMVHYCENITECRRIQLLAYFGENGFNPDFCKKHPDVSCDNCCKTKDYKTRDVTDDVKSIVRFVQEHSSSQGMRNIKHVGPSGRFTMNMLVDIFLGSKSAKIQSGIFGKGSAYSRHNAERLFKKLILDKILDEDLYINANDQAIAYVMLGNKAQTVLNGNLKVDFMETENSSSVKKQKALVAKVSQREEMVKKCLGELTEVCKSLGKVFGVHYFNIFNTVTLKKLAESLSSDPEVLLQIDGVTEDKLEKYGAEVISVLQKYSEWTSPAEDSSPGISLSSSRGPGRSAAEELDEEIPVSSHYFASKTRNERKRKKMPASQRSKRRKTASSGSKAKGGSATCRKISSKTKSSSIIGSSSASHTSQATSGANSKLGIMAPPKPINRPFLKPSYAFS
Summary of the method: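 BLM 50 nM in 25 mM Tris-HCl pH 8.0, 5 mM NaCl, 2 mM MgCl2, 1 mM DTT, 0.01% Tween-20, 2.5 ug/ml poly(dI-dC); 15 min cpd preinc, RT. Start: 200 nM forked DNA + 2 mM ATP (final). TAMRA read, 2 reads 2 h apart.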

[3] = High Content Imaging Cell-Based qHTS for Inhibitors of the mTORC1 Signaling Pathway in MEF (Tsc2-/-, p53-/-) Cells (AID 2666); conditions: series mostly up to 38.3 µM;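 note: percent of cells scored positive for phospho-rpS6 Ser235/236 immunostaining by imaging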
Summary of the method: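 Inhibition of rpS6 phosphorylation is measured by immunofluorescence imaging in empty-vector Tsc2-/-, p53-/- mouse embryonic fibroblasts after 24 hrs compound exposure at 37 degree Celsius. Results are reported as % positive cells per well.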

[4] = biological target: Ferritin light chain (Equus caballus) (UniProt P02791); test: qHTS Validation Assay for Identification of Novel General Anesthetics (AID 2323); conditions: horse apoferritin, anesthetic-site fluorescent probe displacement; series mostly up to 76.9 µM; note: potency is the fitted concentration of half-maximal effect; for activity change, negative = inhibition: % is set by controls: 0 for no effect and ±100 for the full control effect
Chain of UniProt P02791 (P02791 whole entry, looked up): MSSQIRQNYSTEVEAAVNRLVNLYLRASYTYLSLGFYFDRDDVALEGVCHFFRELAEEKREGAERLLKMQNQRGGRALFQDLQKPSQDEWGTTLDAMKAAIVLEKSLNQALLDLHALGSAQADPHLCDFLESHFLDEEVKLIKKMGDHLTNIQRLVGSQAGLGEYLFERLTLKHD
Summary of the method: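 Competitive displacement of profluorescent 1-aminoanthracene (1-AMA, 50% saturated solution in PBS) from 10 uM horse-spleen apoferritin. Compounds incubated 10 min at room temperature; fluorescence read at 380 nm excitation/535 nm emission, normalized to free 1-AMA and complex, fitted with four-parameter Hill equation.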

[5] = Cytometry Cell-Based qHTS for Inhibitors of the mTORC1 Signaling Pathway in MEF cells (AID 2668); conditions: mTORC1 pathway readout; series mostly up to 38.3 µM; note: potency is the fitted concentration of half-maximal effect;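 for activity change, negative = inhibition: Tsc2-/- p53-/- mouse embryonic fibroblasts stably re-expressing wild-type Tsc2; percent cells positive for phospho-rpS6 Ser235/236 relative to propidium iodide stain; plate controls were DMSO wells for no effect and 7.5 nM rapamycin control wells for full effect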
Summary of the method: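 WT MEFs (Tsc2-/-, p53-/- stably re-expressing WT Tsc2) in DMEM + 10% FBS received compounds 24 hrs after plating, for 24 hrs at 37 degree Celsius. Fixed cells stained with Alexa-488 anti-phospho-rpS6 Ser235/236 and propidium iodide; laser-scanning cytometry read-out.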

[6] = Validation screen for small molecules that induce DNA re-replication in MCF 10A normal breast cells (AID 463097); conditions: MCF 10A cells, DNA re-replication phenotype imaging; series mostly up to 46.1 µM; note: nearly all actives have a fitted effect of over 60% in size; note: potency is the fitted concentration of half-maximal effect
Summary of the method: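 Readout: Hoechst nuclear fluorescence intensity, 405 ex / 500-530 em, by scanning plate imager; re-replication scored as increase in nuclei with elevated DNA content. Cells exposed to compound 48 hr, 37 C, 5% CO2 beforehand.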

[7] = qHTS Assay for Modulators of Human Peripheral Myelin Protein 22 (PMP22) Expression/Activity (AID 1967; active = well fitted curve in the direction sought with a large enough effect in the signal ratio; inconclusive = small, poorly fitted or top-dose-only effect, or effect the other way, or a change in a side signal; inactive = no such curve, though single readings can be large or run the other way; the % refers to the signal ratio; note: potency is the fitted concentration of half-maximal effect;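 for activity change (ratio): 0% = untreated cells and 100% end not stated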); conditions: Cell-based PMP22 reporter, dual-color luciferase ratio, mouse Pmp22 promoter in mouse Schwann cells; activity change (ratio): at 115 µM (top of the series), 0% = compound-free control cells
Summary of the method: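 MSC80 mouse Schwann cells stably carrying Pmp22 promoter–green click beetle luciferase plus EF-alpha–red luciferase control were dosed for 24h at 37 °C. Dual-colour luminescence was filter-overlap corrected; %Activity came from green/red ratio versus untreated cells.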

[8] = Cytometric Cell-Based qHTS for Inhibitors of the mTORC1 Signaling Pathway in MEF (Tsc2-/-, p53-/-) Cells (AID 2660); conditions: mTORC1 pathway cytometry; series mostly up to 38.3 µM; note: potency is the fitted concentration of half-maximal effect
Summary of the method: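 Readout: Alexa-488 phospho-rpS6 (Ser235/236) intensity divided by PI intensity, thresholded against 7.5 nM rapamycin wells and reported as % positive cells. PI cell count served as the viability measure. Compound exposure was 24 hrs at 37 degree Celsius.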

[9] = High Content Imaging Cell-Based qHTS for Inhibitors of the mTORC1 Signaling Pathway in MEF Cells (AID 2667); conditions: series mostly up to 38.3 µM; note: potency is the fitted concentration of half-maximal effect
Summary of the method: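 Fixed-cell imaging of phospho-S6 (Ser235/236, Alexa-488) after 24 hrs of compound treatment at 37 degree Celsius. Signal was normalized to Hoechst, and thresholds from the highest and lowest wells split cells into % active versus % non-active.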

[10] = biological target: ATP-dependent DNA helicase Q1 (Homo sapiens) (UniProt P46063); test: qHTS Validation Assay for Inhibitors of RecQ-Like Dna Helicase 1 (RECQ1) (AID 2353); conditions: recombinant RECQ1 helicase DNA unwinding assay; series mostly up to 25.6 µM; note: potency is the fitted concentration of half-maximal effect
Chain of UniProt P46063 (P46063 whole entry, looked up): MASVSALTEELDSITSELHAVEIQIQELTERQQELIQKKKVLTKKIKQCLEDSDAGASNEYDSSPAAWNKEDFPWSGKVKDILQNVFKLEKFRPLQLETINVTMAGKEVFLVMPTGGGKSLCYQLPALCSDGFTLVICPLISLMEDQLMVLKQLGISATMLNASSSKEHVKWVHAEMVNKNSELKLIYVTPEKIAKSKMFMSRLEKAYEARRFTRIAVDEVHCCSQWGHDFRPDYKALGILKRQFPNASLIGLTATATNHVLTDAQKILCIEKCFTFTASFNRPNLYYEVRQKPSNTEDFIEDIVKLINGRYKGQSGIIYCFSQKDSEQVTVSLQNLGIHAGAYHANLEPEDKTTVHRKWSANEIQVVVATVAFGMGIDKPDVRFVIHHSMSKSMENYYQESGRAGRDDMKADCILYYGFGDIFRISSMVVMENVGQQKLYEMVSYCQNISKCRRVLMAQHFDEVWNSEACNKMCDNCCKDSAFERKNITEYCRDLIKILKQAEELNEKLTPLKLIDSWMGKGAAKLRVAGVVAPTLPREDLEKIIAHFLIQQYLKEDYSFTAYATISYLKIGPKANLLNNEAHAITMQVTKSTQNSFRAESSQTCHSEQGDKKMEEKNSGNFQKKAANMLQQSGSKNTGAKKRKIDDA
Summary of the method: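 RECQ1T1 50 nM; forked duplex (20 bp + 30-nt ss tails) 200 nM, ATP 2 mM final; pH 8.0, 2 mM MgCl2, 2.5 ug/ml poly(dI-dC); 15 min compound preincubation; discontinuous kinetic read over 2 h at RT.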

[11] = biological target: DNA polymerase III PolC-type (Bacillus subtilis (strain 168)) (UniProt P13267); test: qHTS Validation Assay for the Inhibitors of DNA Replication in Gram-Positive Bacteria (AID 485295); conditions: Gram-positive bacterial DNA replication assay; at 57.1 µM (top of the series);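 note: PicoGreen fluorescence of double-stranded DNA made on primed circular M13 template; 0% = DMSO wells and -100% = EDTA-quenched background wells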
Chain of UniProt P13267 (P13267 whole entry, looked up): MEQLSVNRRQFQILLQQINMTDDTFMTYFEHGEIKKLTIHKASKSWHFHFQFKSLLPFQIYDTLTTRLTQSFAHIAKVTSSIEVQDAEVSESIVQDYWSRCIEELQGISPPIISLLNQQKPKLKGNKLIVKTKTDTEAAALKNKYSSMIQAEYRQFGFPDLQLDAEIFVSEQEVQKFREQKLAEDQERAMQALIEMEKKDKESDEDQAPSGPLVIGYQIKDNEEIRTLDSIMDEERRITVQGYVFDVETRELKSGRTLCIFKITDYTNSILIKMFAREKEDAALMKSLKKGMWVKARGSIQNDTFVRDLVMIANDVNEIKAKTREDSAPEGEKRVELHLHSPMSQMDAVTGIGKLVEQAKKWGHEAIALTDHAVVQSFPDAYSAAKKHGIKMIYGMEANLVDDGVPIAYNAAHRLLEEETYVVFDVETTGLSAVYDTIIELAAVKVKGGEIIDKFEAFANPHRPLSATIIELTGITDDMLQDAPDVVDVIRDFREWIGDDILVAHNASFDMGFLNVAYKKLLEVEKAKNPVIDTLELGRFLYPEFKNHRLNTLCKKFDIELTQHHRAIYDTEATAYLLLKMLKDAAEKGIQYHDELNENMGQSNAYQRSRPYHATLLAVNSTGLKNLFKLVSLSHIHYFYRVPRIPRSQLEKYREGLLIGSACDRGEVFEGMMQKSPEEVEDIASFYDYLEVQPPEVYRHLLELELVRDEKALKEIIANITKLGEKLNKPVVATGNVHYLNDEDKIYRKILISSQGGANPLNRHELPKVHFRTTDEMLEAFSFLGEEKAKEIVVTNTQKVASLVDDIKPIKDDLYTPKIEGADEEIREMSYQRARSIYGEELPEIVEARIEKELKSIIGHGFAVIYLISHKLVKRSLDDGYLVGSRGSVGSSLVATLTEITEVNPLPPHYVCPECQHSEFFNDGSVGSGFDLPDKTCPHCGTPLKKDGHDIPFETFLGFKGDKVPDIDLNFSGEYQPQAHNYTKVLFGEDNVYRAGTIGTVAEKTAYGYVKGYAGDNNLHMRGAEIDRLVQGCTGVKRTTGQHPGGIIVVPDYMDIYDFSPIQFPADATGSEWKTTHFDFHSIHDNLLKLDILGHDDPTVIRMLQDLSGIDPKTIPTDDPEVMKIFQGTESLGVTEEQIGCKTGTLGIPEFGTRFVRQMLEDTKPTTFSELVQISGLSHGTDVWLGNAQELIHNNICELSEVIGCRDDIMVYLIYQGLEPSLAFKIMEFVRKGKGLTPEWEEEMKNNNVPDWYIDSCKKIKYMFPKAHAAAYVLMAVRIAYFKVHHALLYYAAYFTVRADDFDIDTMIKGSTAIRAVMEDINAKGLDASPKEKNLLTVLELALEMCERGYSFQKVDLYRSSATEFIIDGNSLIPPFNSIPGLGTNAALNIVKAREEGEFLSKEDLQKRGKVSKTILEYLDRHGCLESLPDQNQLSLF
Summary of the method: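 Reconstituted B. subtilis holoenzyme (Pol III, beta clamp, SSB, primase) was preincubated with compound at room temperature, then given single-stranded circular M13Gori plus dNTPs and NTPs. EDTA-containing PicoGreen stopped the reaction, and dsDNA product was read by fluorescence.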
Tags give direction and shape of the fitted curve.

For `NC12CC3CC(CC(C3)C1)C2`, the Potency [1] was “inactive”, the Potency [2] was inconclusive: 0.0112 µM [inhibitor, full curve, poor fit] and the Potency [3] was “inactive”.
With `CCOC(=O)C(C)(C)Oc1ccc(Cl)cc1` the Potency [4] was inconclusive: 35.5 µM [inhibitor, partial curve], the Potency [2] was “inactive” and the Potency [5] was “inactive”. The Potency [6] was “inactive”.
With `CNCCCC12CCC(c3ccccc31)c1ccccc12` the Potency [1] was inconclusive: 11.2 µM [inhibitor, single point], the Potency [7] was inconclusive: 23.9 µM [cytotoxic, full curve, poor fit] and the Potency [8] was inconclusive: 26.1 µM [falling, single point]. For the same molecule, the Potency [9] was active: 0.521 µM and the Potency [5] was inconclusive: 26.1 µM [falling, single point].
In the case of `O=C1N(c2ccccc2)c2ccccc2C1(Cc1ccncc1)Cc1ccncc1`, the Potency [7] is reported as “inactive”, the Potency [4] is reported as “inactive” and the Potency [2] is reported as “inactive”. The Potency [5] was “inactive”.
In the case of `O=C1c2ccccc2-c2n[nH]c3cccc1c23`, the Potency [1] is reported as inconclusive: 8.91 µM [inhibitor, partial curve], the Potency [2] is reported as “inactive” and the Potency [5] is reported as inconclusive: 20.7 µM [falling, single point].
With `CC(C)(C)NCC(O)c1ccc(O)c(CO)c1` (configuration not stated) the Potency [2] was “inactive”.
For `NCCCCCC(=O)O`, the Potency [10] was inconclusive: 6.31 µM [inhibitor, partial curve] and the Potency [6] was “inactive”.
With `CCOC(=O)C1=C[C@]2(CC)CCCN3CCc4c(n1c1ccccc41)[C@@H]32` the Potency [2] was inconclusive: 0.794 µM [inhibitor, full curve].
For `Clc1ccccc1C(c1ccccc1)(c1ccccc1)n1ccnc1`, the Potency [4] was inconclusive: 8.91 µM [inhibitor, partial curve], the Potency [2] was inconclusive: 22.4 µM [inhibitor, partial curve] and the Potency [6] was inconclusive: 28.2 µM [activator, single point]. The activity change, negative = inhibition [11] was inactive: -18.8%.
